Test results reported in PMC9911399, “Two distinct binding modes provide the RNA-binding protein RbFox with extraordinary sequence specificity”.
Changes are numbered by the printed parent chain; changes in the protein carry UniProt numbers. This is one part of the list.

B1: UGAGUGG (DNA:RNA)
RNA: GGGAGACCGGAAUUCAGAUUGUCCUGAGUGGUUAAAUCCCGUCGUAGCCACCA
DNA 1: CAATCTGAATTCCGGTCTCCC
DNA 2: TGGTGGCTACGACGGGATT
B2: AACUACC (DNA:RNA)
RNA: GGGAGACCGGAAUUCAGAUUGUCCAACUACCUUAAAUCCCGUCGUAGCCACCA
DNA 1: CAATCTGAATTCCGGTCTCCC
DNA 2: TGGTGGCTACGACGGGATT
B3: CCGUGGA (DNA:RNA)
RNA: B2 RNA with A25C, A26C, C27G, A29G, C30G, C31A
DNA 1: CAATCTGAATTCCGGTCTCCC
DNA 2: TGGTGGCTACGACGGGATT
B4: GCGAUGG (DNA:RNA)
RNA: B1 RNA with U25G, G26C, A27G, G28A
DNA 1: CAATCTGAATTCCGGTCTCCC
DNA 2: TGGTGGCTACGACGGGATT
B5: AGGUCCA (DNA:RNA)
RNA: B2 RNA with A26G, C27G, A29C, C31A
DNA 1: CAATCTGAATTCCGGTCTCCC
DNA 2: TGGTGGCTACGACGGGATT
B6: GUGGCCA (DNA:RNA)
RNA: B2 RNA with A25G, A26U, C27G, U28G, A29C, C31A
DNA 1: CAATCTGAATTCCGGTCTCCC
DNA 2: TGGTGGCTACGACGGGATT
B7: UUACUGA (DNA:RNA)
RNA: B1 RNA with G26U, G28C, G31A
DNA 1: CAATCTGAATTCCGGTCTCCC
DNA 2: TGGTGGCTACGACGGGATT
B8: GCGCCGA (DNA:RNA)
RNA: B1 RNA with U25G, G26C, A27G, G28C, U29C, G31A
DNA 1: CAATCTGAATTCCGGTCTCCC
DNA 2: TGGTGGCTACGACGGGATT
B9: CUACAGU (DNA:RNA)
RNA: B1 RNA with U25C, G26U, G28C, U29A, G31U
DNA 1: CAATCTGAATTCCGGTCTCCC
DNA 2: TGGTGGCTACGACGGGATT
B10: GGGGUAA (DNA:RNA)
RNA: B1 RNA with U25G, A27G, G30A, G31A
DNA 1: CAATCTGAATTCCGGTCTCCC
DNA 2: TGGTGGCTACGACGGGATT
B11: CGCCUGU (DNA:RNA)
RNA: B1 RNA with U25C, A27C, G28C, G31U
DNA 1: CAATCTGAATTCCGGTCTCCC
DNA 2: TGGTGGCTACGACGGGATT
B12: UCUAACC (DNA:RNA)
RNA: B2 RNA with A25U, A26C, C27U, U28A
DNA 1: CAATCTGAATTCCGGTCTCCC
DNA 2: TGGTGGCTACGACGGGATT
B13: GCGCGUC (DNA:RNA)
RNA: B2 RNA with A25G, A26C, C27G, U28C, A29G, C30U
DNA 1: CAATCTGAATTCCGGTCTCCC
DNA 2: TGGTGGCTACGACGGGATT
B14: CUGACCA (DNA:RNA)
RNA: B2 RNA with A25C, A26U, C27G, U28A, A29C, C31A
DNA 1: CAATCTGAATTCCGGTCTCCC
DNA 2: TGGTGGCTACGACGGGATT
B15: AGAAGCG (DNA:RNA)
RNA: B1 RNA with U25A, G28A, U29G, G30C
DNA 1: CAATCTGAATTCCGGTCTCCC
DNA 2: TGGTGGCTACGACGGGATT
B16: CCAAAAG (DNA:RNA)
RNA: B1 RNA with U25C, G26C, G28A, U29A, G30A
DNA 1: CAATCTGAATTCCGGTCTCCC
DNA 2: TGGTGGCTACGACGGGATT
B17: UGCCGGA (DNA:RNA)
RNA: B1 RNA with A27C, G28C, U29G, G31A
DNA 1: CAATCTGAATTCCGGTCTCCC
DNA 2: TGGTGGCTACGACGGGATT
B18: UCUGGAU (DNA:RNA)
RNA: B1 RNA with G26C, A27U, U29G, G30A, G31U
DNA 1: CAATCTGAATTCCGGTCTCCC
DNA 2: TGGTGGCTACGACGGGATT
B19: ACCUACU (DNA:RNA)
RNA: B2 RNA with A26C, C31U
DNA 1: CAATCTGAATTCCGGTCTCCC
DNA 2: TGGTGGCTACGACGGGATT
B20: CUGGUGU (DNA:RNA)
RNA: B1 RNA with U25C, G26U, A27G, G31U
DNA 1: CAATCTGAATTCCGGTCTCCC
DNA 2: TGGTGGCTACGACGGGATT
B21: UAGCGGG (DNA:RNA)
RNA: B1 RNA with G26A, A27G, G28C, U29G
DNA 1: CAATCTGAATTCCGGTCTCCC
DNA 2: TGGTGGCTACGACGGGATT
B22: GCACGUA (DNA:RNA)
RNA: B1 RNA with U25G, G26C, G28C, U29G, G30U, G31A
DNA 1: CAATCTGAATTCCGGTCTCCC
DNA 2: TGGTGGCTACGACGGGATT
B23: GUUUUAA (DNA:RNA)
RNA: B2 RNA with A25G, A26U, C27U, A29U, C30A, C31A
DNA 1: CAATCTGAATTCCGGTCTCCC
DNA 2: TGGTGGCTACGACGGGATT
B24: AUGUCAG (DNA:RNA)
RNA: B2 RNA with A26U, C27G, A29C, C30A, C31G
DNA 1: CAATCTGAATTCCGGTCTCCC
DNA 2: TGGTGGCTACGACGGGATT
B25: AAAAAGG (DNA:RNA)
RNA: B2 RNA with C27A, U28A, C30G, C31G
DNA 1: CAATCTGAATTCCGGTCTCCC
DNA 2: TGGTGGCTACGACGGGATT
B26: AAUUGCC (DNA:RNA)
RNA: B2 RNA with C27U, A29G
DNA 1: CAATCTGAATTCCGGTCTCCC
DNA 2: TGGTGGCTACGACGGGATT
B27: GGGUAAC (DNA:RNA)
RNA: B2 RNA with A25G, A26G, C27G, C30A
DNA 1: CAATCTGAATTCCGGTCTCCC
DNA 2: TGGTGGCTACGACGGGATT
B28: AAUGACU (DNA:RNA)
RNA: B2 RNA with C27U, U28G, C31U
DNA 1: CAATCTGAATTCCGGTCTCCC
DNA 2: TGGTGGCTACGACGGGATT
B29: GAAAAAU (DNA:RNA)
RNA: B2 RNA with A25G, C27A, U28A, C30A, C31U
DNA 1: CAATCTGAATTCCGGTCTCCC
DNA 2: TGGTGGCTACGACGGGATT
B30: CACUGAC (DNA:RNA)
RNA: B2 RNA with A25C, A29G, C30A
DNA 1: CAATCTGAATTCCGGTCTCCC
DNA 2: TGGTGGCTACGACGGGATT
B31: GGAAUUA (DNA:RNA)
RNA: B1 RNA with U25G, G28A, G30U, G31A
DNA 1: CAATCTGAATTCCGGTCTCCC
DNA 2: TGGTGGCTACGACGGGATT

These binders were tested against T1, RBFOX1 RRM (Homo sapiens, UniProt Q9NWB1 109-208) (assay: EMSA; HiTS-Eq, 1 nM pool, 10 min; buffer printed only for the single-RNA assays: 10 mM Tris pH 7.5, 150 mM NaCl, 3.4 mM EDTA, 0.001% NP-40, 30 C). Conditions: tags: His6 N-terminal (pET28a); label: 5' 32P.
T1 sequence: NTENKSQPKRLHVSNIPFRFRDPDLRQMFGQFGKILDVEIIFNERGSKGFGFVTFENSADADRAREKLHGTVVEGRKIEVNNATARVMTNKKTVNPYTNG
Procedure, shortened: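 These values rest on relative association constants, computed from read-count changes of each RNA species versus the control reaction and normalised to the cognate motif. Reads came from free RNA recovered by 8% native PAGE after purified RbFox RRM (wild type or mutant) at increasing concentrations was equilibrated for 10 min in 50 µL with 1 nM of a 5′-radiolabelled pool with 7 randomized nucleotides and DNA-annealed flanks.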

| Binder | binding signal |
| --- | --- |
| B1 | 0.0137 KA relative to UGCAUGU |
| B2 | 0.000243 KA relative to UGCAUGU |
| B3 | 0.00891 KA relative to UGCAUGU |
| B4 | 0.0208 KA relative to UGCAUGU |
| B5 | 0.00356 KA relative to UGCAUGU |
| B6 | 0.0191 KA relative to UGCAUGU |
| B7 | 0.0193 KA relative to UGCAUGU |
| B8 | 0.0146 KA relative to UGCAUGU |
| B9 | 0.00554 KA relative to UGCAUGU |
| B10 | 0.0285 KA relative to UGCAUGU |
| B11 | 0.0302 KA relative to UGCAUGU |
| B12 | 0.00232 KA relative to UGCAUGU |
| B13 | 0.0189 KA relative to UGCAUGU |
| B14 | 0.0053 KA relative to UGCAUGU |
| B15 | 0.0068 KA relative to UGCAUGU |
| B16 | 0.00128 KA relative to UGCAUGU |

| Binder | binding signal |
| --- | --- |
| B17 | 0.0112 KA relative to UGCAUGU |
| B18 | 0.00758 KA relative to UGCAUGU |
| B19 | 0.000725 KA relative to UGCAUGU |
| B20 | 0.0254 KA relative to UGCAUGU |
| B21 | 0.00967 KA relative to UGCAUGU |
| B22 | 0.0281 KA relative to UGCAUGU |
| B23 | 0.01 KA relative to UGCAUGU |
| B24 | 0.0117 KA relative to UGCAUGU |
| B25 | 0.00235 KA relative to UGCAUGU |
| B26 | 0.00637 KA relative to UGCAUGU |
| B27 | 0.022 KA relative to UGCAUGU |
| B28 | 0.00439 KA relative to UGCAUGU |
| B29 | 0.00129 KA relative to UGCAUGU |
| B30 | 0.00646 KA relative to UGCAUGU |
| B31 | 0.00812 KA relative to UGCAUGU |
